Reference: the supplement of paper PMC9151546
Most values come without repeats; read them as rough.

Legend:
[1] = system: CHO-K1; assay: micronucleus frequency (% of nucleated events); higher = more micronuclei (genotoxic)
[2] = system: CHO-K1; assay: relative survival (nuclei to bead ratio vs DMSO control) (% of vehicle control); higher = more surviving cells
[3] = system: CHO-K1; assay: hypodiploid nuclei frequency (% of nucleated events); higher = more hypodiploid events (aneugenic)
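Throughout, for hypodiploid nuclei frequency (% of nucleated events): hypodiploid nuclei gated on a flow cytometer with 488 nm excitation after SYTOX Green staining, cultures at 37 °C, positive controls vinblastine without S9 and cyclophosphamide with S9.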
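Throughout, for micronucleus frequency (% of nucleated events): cells lysed with nuclei stained by SYTOX Green, then micronucleus-gated events counted against nucleated events by flow cytometry with 488 nm excitation.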
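Throughout, for relative survival (nuclei to bead ratio vs DMSO control): Lysed-cell nuclei stained with SYTOX Green and counted against counting beads by flow cytometry at 488 nm excitation, with vinblastine (no S9) and cyclophosphamide (plus S9) as positive controls.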

O=P(OC(CCl)CCl)(OC(CCl)CCl)OC(CCl)CCl [Tris(1,3-dichloro-2-propyl)phosphate]
Settings	hypodiploid nuclei frequency, [3] [%]	micronucleus frequency, [1] [%]	relative survival, [2]
concentration: 4.5 (µM), S9 metabolic activation: with S9, exposure time: 3-4 hours	0.32	1.54	101
concentration: 4.5 (µM), S9 metabolic activation: without S9, exposure time: 24 hours	0.78	1.3	110
concentration: 5.63 (µM), S9 metabolic activation: with S9, exposure time: 3-4 hours	0.22	2.18	83.5
concentration: 5.63 (µM), S9 metabolic activation: without S9, exposure time: 24 hours	0.4	1.54	105
concentration: 7.04 (µM), S9 metabolic activation: with S9, exposure time: 3-4 hours	0.24	1.56	85
concentration: 7.04 (µM), S9 metabolic activation: without S9, exposure time: 24 hours	0.6	1.92	74.2
concentration: 8.8 (µM), S9 metabolic activation: with S9, exposure time: 3-4 hours	0.3	0.96	77.2
concentration: 8.8 (µM), S9 metabolic activation: without S9, exposure time: 24 hours	0.62	0.9	74.4
concentration: 11 (µM), S9 metabolic activation: with S9, exposure time: 3-4 hours	0.2	1.56	81.8
concentration: 11 (µM), S9 metabolic activation: without S9, exposure time: 24 hours	0.48	1.02	61
concentration: 13.7 (µM), S9 metabolic activation: with S9, exposure time: 3-4 hours	0.3	1.46	86.7
concentration: 13.7 (µM), S9 metabolic activation: without S9, exposure time: 24 hours	0.44	1.32	74.9
concentration: 17.2 (µM), S9 metabolic activation: with S9, exposure time: 3-4 hours	0.2	1.58	86.4
concentration: 17.2 (µM), S9 metabolic activation: without S9, exposure time: 24 hours	0.58	1.26	80
concentration: 21.5 (µM), S9 metabolic activation: with S9, exposure time: 3-4 hours	0.22	1.62	91.4
concentration: 21.5 (µM), S9 metabolic activation: without S9, exposure time: 24 hours	0.44	1.22	80.3
concentration: 26.8 (µM), S9 metabolic activation: with S9, exposure time: 3-4 hours	0.16	1.36	99.6
concentration: 26.8 (µM), S9 metabolic activation: without S9, exposure time: 24 hours	0.86	0.86	79.2
concentration: 33.6 (µM), S9 metabolic activation: with S9, exposure time: 3-4 hours	0.36	1.58	99.6
concentration: 33.6 (µM), S9 metabolic activation: without S9, exposure time: 24 hours	0.86	1.1	85.9
concentration: 41.9 (µM), S9 metabolic activation: with S9, exposure time: 3-4 hours	0.12	1.16	90.1
concentration: 41.9 (µM), S9 metabolic activation: without S9, exposure time: 24 hours	0.8	0.78	98.6
concentration: 52.4 (µM), S9 metabolic activation: with S9, exposure time: 3-4 hours	0.28	0.9	74.7
concentration: 52.4 (µM), S9 metabolic activation: without S9, exposure time: 24 hours	0.68	1.06	85
concentration: 65.5 (µM), S9 metabolic activation: with S9, exposure time: 3-4 hours	0.2	1.14	71
concentration: 65.5 (µM), S9 metabolic activation: without S9, exposure time: 24 hours	0.8	0.9	63.1
concentration: 81.9 (µM), S9 metabolic activation: with S9, exposure time: 3-4 hours	0.14	1.08	76.8
concentration: 81.9 (µM), S9 metabolic activation: without S9, exposure time: 24 hours	0.9	1.24	77.6
concentration: 102 (µM), S9 metabolic activation: with S9, exposure time: 3-4 hours	0.22	1.28	67.8
concentration: 102 (µM), S9 metabolic activation: without S9, exposure time: 24 hours	0.8	1.12	54.1
concentration: 128 (µM), S9 metabolic activation: with S9, exposure time: 3-4 hours	0.2	1.7	76.1
concentration: 128 (µM), S9 metabolic activation: without S9, exposure time: 24 hours	0.48	0.8	50.2
concentration: 160 (µM), S9 metabolic activation: with S9, exposure time: 3-4 hours	0.14	1.66	73.8
concentration: 160 (µM), S9 metabolic activation: without S9, exposure time: 24 hours	0.52	0.94	53.6
concentration: 200 (µM), S9 metabolic activation: with S9, exposure time: 3-4 hours	0.32	1.64	61
concentration: 200 (µM), S9 metabolic activation: without S9, exposure time: 24 hours	0.44	0.78	42.2
